Experimental data from patent US20140044713A1 (KONINKLIJKE NEDERLANDSE AKADEMIE VAN WETENSCHAPPEN, published 2014).

How the values were obtained:
Experiment in all cases: TAP + mass spectrometry, HEK293 cells
FBXO18 = target: T1, FBXO18 (Homo sapiens (Human), UniProt Q8NFZ0 1-1043)
T1 construct: TAP-MS bait
T1 sequence: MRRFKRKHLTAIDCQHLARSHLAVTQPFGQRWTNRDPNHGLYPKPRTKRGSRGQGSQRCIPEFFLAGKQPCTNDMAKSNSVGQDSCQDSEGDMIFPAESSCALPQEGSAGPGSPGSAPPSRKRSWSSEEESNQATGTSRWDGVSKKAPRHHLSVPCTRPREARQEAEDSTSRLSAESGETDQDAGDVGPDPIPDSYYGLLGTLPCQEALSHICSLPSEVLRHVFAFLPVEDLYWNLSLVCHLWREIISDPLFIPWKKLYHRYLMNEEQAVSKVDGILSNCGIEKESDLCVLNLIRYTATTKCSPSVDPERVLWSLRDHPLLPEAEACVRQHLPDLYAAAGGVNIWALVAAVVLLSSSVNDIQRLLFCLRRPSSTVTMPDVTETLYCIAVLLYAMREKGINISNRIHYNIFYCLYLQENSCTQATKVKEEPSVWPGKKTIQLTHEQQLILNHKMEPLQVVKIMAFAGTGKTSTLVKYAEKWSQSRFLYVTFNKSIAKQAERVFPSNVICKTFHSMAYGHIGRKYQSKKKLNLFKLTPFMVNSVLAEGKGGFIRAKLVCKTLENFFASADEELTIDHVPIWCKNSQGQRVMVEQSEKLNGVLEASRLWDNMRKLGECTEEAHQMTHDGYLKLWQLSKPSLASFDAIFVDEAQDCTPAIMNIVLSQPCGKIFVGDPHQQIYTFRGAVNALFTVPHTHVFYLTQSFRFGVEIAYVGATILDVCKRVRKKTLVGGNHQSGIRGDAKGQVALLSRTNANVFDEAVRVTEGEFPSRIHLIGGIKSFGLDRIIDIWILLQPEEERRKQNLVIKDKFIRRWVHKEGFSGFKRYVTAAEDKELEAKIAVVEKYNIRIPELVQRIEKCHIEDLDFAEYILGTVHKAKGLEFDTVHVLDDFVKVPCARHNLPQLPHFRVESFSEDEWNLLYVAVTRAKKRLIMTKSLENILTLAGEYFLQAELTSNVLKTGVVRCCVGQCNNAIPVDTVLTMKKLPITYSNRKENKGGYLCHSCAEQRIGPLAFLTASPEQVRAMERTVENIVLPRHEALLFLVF

USP47 = target: T2, USP47 (Homo sapiens (Human), UniProt Q96K76 1-1375)
T2 construct: TAP-MS bait
T2 sequence: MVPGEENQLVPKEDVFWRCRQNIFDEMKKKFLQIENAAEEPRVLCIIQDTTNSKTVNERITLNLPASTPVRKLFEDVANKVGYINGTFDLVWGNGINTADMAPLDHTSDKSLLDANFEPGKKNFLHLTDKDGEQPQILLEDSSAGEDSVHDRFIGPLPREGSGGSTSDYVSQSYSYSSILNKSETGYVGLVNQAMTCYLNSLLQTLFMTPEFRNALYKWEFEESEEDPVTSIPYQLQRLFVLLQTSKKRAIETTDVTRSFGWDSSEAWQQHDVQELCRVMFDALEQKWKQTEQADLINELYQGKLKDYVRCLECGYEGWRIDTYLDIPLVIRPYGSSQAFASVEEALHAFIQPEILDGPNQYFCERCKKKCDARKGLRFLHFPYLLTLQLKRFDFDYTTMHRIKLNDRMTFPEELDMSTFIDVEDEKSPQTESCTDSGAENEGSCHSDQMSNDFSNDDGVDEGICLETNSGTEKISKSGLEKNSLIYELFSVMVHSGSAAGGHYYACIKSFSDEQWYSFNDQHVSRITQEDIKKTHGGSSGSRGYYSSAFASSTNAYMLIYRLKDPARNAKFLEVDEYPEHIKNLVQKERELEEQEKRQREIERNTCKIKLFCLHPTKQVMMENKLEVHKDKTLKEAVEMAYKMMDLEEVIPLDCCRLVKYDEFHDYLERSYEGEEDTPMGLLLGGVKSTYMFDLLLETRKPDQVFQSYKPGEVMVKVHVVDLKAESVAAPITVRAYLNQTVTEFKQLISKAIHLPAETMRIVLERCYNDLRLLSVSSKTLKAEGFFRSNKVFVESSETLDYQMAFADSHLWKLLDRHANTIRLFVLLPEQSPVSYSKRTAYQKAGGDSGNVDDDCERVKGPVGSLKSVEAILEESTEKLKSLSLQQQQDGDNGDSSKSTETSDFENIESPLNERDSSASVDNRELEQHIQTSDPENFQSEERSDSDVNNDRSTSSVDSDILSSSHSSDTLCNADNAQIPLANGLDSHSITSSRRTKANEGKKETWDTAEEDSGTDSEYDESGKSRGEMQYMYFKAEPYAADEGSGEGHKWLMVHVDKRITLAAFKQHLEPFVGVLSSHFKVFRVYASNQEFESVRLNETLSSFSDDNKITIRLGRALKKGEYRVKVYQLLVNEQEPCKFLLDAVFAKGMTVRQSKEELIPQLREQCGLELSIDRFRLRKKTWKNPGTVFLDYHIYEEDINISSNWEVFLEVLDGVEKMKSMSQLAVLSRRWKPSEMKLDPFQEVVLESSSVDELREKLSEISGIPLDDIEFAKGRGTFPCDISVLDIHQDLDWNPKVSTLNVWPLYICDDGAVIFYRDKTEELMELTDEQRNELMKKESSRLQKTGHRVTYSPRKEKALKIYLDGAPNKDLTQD

PER2 = target: T3, PER2 (Homo sapiens (Human), UniProt O15055 1-1255)
T3 construct: TAP-MS bait
T3 sequence: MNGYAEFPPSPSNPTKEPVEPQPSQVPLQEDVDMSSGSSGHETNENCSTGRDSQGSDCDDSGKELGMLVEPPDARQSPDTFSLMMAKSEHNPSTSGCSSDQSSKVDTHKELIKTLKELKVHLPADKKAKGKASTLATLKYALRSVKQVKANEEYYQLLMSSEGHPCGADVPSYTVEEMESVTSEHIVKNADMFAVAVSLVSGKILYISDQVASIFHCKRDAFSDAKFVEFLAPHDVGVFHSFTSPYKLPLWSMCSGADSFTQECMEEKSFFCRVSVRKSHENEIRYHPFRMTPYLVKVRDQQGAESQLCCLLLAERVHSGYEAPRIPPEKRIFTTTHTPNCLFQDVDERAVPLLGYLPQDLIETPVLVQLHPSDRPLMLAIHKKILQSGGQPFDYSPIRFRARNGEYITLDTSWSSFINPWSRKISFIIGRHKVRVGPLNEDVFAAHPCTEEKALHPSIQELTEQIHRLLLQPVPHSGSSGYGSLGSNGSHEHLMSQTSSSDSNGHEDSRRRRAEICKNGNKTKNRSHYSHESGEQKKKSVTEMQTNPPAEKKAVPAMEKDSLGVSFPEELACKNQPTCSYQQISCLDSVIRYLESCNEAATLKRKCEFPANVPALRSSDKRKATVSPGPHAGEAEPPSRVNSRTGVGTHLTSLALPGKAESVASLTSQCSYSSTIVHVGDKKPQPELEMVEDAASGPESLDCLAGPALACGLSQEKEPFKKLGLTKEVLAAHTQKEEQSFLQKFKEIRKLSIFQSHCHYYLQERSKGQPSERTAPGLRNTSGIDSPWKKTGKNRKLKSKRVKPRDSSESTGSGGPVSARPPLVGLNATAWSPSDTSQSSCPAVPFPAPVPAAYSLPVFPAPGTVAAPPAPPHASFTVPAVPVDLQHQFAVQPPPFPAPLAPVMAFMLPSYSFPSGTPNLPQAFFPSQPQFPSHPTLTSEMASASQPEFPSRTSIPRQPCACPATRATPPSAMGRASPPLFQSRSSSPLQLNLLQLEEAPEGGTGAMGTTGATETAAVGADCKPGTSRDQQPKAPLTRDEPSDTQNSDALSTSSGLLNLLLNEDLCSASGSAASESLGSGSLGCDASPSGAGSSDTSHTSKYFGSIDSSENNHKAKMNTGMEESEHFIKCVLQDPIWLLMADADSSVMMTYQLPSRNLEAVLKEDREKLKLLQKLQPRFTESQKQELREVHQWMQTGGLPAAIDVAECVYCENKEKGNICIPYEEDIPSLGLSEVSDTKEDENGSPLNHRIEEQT

Measured: binding result

B1: Lgr4 (endogenous, or expression construct whose tag is not stated) (receptor)
chain: not shown
notes: whole, on cells; Endogenous protein of HEK293T / LS174T cells in TAP-MS; also called endogenous Lgr4
no binding: FBXO18 | USP47 | PER2
